Measurements as given in patent US12583836B2 (Anaxis Pharma Pty Ltd, priority 2020, dated 2026).

What was measured:
RIP3 = target: T1, RIP3 (Homo sapiens, UniProt Q9Y572); experiment: KINOMEscan binding assay, RIP3; conditions: equilibrium dissociation constant, class symbols
T1 construct: purchased DiscoverX (KINOMEscan service); host or cells: E. coli BL21-derived (T7 phage) or HEK293
Description: The Hill Slope was set to −1.

RIP1 = target: T2, RIP1 (Homo sapiens, UniProt Q13546); experiment: KINOMEscan binding assay, RIP1; conditions: equilibrium dissociation constant, class symbols
T2 construct: purchased DiscoverX (KINOMEscan service); host or cells: E. coli BL21-derived (T7 phage) or HEK293
T2 sequence (Q13546 1-671): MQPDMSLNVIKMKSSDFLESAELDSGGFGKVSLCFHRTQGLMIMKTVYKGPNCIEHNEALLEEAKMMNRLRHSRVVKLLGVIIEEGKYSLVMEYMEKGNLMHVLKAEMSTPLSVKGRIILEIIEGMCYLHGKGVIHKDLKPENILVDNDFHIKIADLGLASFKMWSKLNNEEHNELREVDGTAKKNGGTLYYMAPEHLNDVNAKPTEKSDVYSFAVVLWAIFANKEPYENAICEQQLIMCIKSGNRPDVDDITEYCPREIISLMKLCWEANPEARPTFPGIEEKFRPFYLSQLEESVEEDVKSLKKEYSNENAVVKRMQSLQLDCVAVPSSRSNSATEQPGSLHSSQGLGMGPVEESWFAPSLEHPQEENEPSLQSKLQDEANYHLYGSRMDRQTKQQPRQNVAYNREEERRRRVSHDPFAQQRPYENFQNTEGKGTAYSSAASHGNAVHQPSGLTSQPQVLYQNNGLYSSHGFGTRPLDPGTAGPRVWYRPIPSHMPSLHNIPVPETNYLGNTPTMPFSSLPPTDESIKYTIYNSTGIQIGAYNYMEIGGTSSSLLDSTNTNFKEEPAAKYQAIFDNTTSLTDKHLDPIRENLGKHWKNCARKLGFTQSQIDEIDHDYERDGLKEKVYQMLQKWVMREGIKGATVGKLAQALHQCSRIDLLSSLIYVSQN

U937 cells = experiment: Counter screen: cell viability without the TSQ cocktail (CelltiterGlo); design: species or system human; conditions: Homo sapiens, U-937, cell viability by CelltiterGlo, read-out: Off-target effect (IC50 cell-based assay)
Procedure: Counter screen: In parallel, all compounds were tested for their ability to affect cell viability. The same U937 cells were treated with compound in DMSO without the TSQ cocktail. This counter screen enabled evaluation of off-target effects. In this case, cell viability was measured by CelltiterGlo.

[1] = test system: U937 human histiocytic leukemia cell line; experiment: Inhibition of TSQ induced necroptosis, 384 well plate format (CellTitre-Glo); conditions: Homo sapiens, U-937; U937 cells, TSQ cocktail (TNF, Smac mimetic, Q-VD-OPh), CelltiterGlo; read-out: Inhibition of TSQ-induced necroptosis (IC50 cell-based assay)
How it was run: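 Necroptosis was induced in U937 cells (20,000/well) by hTNF-Fc 100 ng/ml, Smac mimetic 500 nM and Q-VD-OPh 10 μM for 48 h at 37 °C. Compounds were run as a 10-point 1:3 series from 36 μM in 0.3% DMSO. Viability was read by CellTiter-Glo luminescence (DMSO = 100%, DMSO+TSQ = 0%), and IC50 was taken from a 4-parameter fit.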

T1 sequence (Q9Y572 whole entry): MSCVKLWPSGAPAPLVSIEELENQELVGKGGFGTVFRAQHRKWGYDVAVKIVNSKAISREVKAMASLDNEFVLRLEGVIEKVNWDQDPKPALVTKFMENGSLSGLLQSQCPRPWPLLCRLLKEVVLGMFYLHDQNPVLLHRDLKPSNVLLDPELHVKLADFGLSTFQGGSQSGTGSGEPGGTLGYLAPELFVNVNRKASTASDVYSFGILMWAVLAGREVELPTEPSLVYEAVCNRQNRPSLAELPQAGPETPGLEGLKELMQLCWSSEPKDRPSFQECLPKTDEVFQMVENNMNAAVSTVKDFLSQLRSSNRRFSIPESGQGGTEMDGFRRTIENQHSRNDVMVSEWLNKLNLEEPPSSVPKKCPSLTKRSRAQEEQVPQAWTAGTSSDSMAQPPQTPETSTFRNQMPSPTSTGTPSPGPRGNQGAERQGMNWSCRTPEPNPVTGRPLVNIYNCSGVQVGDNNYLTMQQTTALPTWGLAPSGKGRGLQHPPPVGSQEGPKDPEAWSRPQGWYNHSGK

Structure (SMILES): NC(=O)c1c(-c2ccc(NS(=O)(=O)CC(F)(F)F)cc2)n[nH]c1Nc1cccc(C(F)(F)F)n1 [Compound 43, 3-(4-((2,2,2-trifluoroethyl)sulfonamido)phenyl)-5-((6-(trifluoromethyl)pyridin-2-yl)amino)-1H-pyrazole-4-carboxamide]
- Kd (RIP3): 1 to 30 µM
- Kd (RIP1): > 30 µM
- IC50 (U937 cells): > 30 µM
- IC50 [1]: 0.01 to 1 µM

Structure (SMILES): NC(=O)c1c(-c2ccc(NS(=O)(=O)C(F)F)cc2)n[nH]c1Nc1cnccn1 [Compound 63, 3-(4-((difluoromethyl)sulfonamido)phenyl)-5-(pyrazin-2-ylamino)-1H-pyrazole-4-carboxamide]
- Kd (RIP3): > 30 µM
- Kd (RIP1): > 30 µM
- IC50 (U937 cells): > 30 µM
- IC50 [1]: 1 to 30 µM

Structure (SMILES): CC(C)S(=O)(=O)Nc1ccc(-c2n[nH]c(Nc3cnccn3)c2C(N)=O)cc1 [Compound 71, 3-(4-((1-methylethyl)sulfonamido)phenyl)-5-(pyrazin-2-ylamino)-1H-pyrazole-4-carboxamide]
- Kd (RIP3): 1 to 30 µM
- Kd (RIP1): > 30 µM
- IC50 (U937 cells): > 30 µM
- IC50 [1]: 1 to 30 µM

Structure (SMILES): CCS(=O)(=O)Nc1ccc(-c2n[nH]c(Nc3cnc(OC)cn3)c2C(N)=O)cc1 [Compound 90, 3-(4-(ethylsulfonamido)phenyl)-5-((5-methoxypyrazin-2-yl)amino)-1H-pyrazole-4-carboxamide]
- Kd (RIP3): > 30 µM
- Kd (RIP1): > 30 µM
- IC50 (U937 cells): > 30 µM
- IC50 [1]: 1 to 30 µM

Structure (SMILES): CCS(=O)(=O)Nc1ccc(-c2n[nH]c(Nc3ccc(C#N)cc3)c2C(N)=O)cc1 [Compound 102, 5-((4-cyanophenyl)amino)-3-(4-(ethylsulfonamido)phenyl)-1H-pyrazole-4-carboxamide]
- Kd (RIP3): > 30 µM
- Kd (RIP1): > 30 µM
- IC50 (U937 cells): > 30 µM
- IC50 [1]: 1 to 30 µM

Structure (SMILES): CCS(=O)(=O)Nc1ccc(-c2n[nH]c(Nc3ccc(OC)nc3)c2C(N)=O)cc1 [Compound 115, 3-(4-(ethylsulfonamido)phenyl)-5-((6-methoxypyridin-3-yl)amino)-1H-pyrazole-4-carboxamide]
- Kd (RIP3): > 30 µM
- Kd (RIP1): 1 to 30 µM
- IC50 (U937 cells): > 30 µM
- IC50 [1]: 1 to 30 µM

Structure (SMILES): CCS(=O)(=O)Nc1ccc(-c2n[nH]c(Nc3ccccc3)c2C(N)=O)cc1 [Compound 124, 3-(4-(ethylsulfonamido)phenyl)-5-(phenylamino)-1H-pyrazole-4-carboxamide]
- Kd (RIP3): > 30 µM
- Kd (RIP1): > 30 µM
- IC50 (U937 cells): > 30 µM
- IC50 [1]: 1 to 30 µM

Structure (SMILES): CCS(=O)(=O)Nc1ccc(-c2n[nH]c(Nc3cccc(OCCOC)n3)c2C(N)=O)cc1 [Compound 128, 3-(4-(ethylsulfonamido)phenyl)-5-((6-(2-methoxyethoxy)pyridin-2-yl)amino)-1H-pyrazole-4-carboxamide]
- Kd (RIP3): 1 to 30 µM
- Kd (RIP1): > 30 µM
- IC50 (U937 cells): > 30 µM
- IC50 [1]: 1 to 30 µM

Structure (SMILES): NC(=O)c1c(-c2ccc(NS(=O)(=O)CC(F)(F)F)cc2OCc2ccc(F)cc2)n[nH]c1Nc1cccc(C(F)(F)F)n1 [Compound 140, 3-(2-((4-fluorobenzyl)oxy)-4-((2,2,2-trifluoroethyl)sulfonamido)phenyl)-5-((6-(trifluoromethyl)pyridine-2-yl)amino)-1H-pyrazole-4-carboxamide]
- Kd (RIP3): > 30 µM
- Kd (RIP1): > 30 µM
- IC50 (U937 cells): 1 to 30 µM
- IC50 [1]: 0.01 to 1 µM

Structure (SMILES): NC(=O)c1c(-c2ccc(NS(=O)(=O)CC(F)(F)F)c(OC3(c4ccc(F)cc4)CC3)c2)n[nH]c1Nc1cnccn1 [Compound 144, 3-(3-(1-(4-fluorophenyl)cyclopropoxy)-4-((2,2,2-trifluoroethyl)sulfonamido)phenyl)-5-(pyrazin-2-ylamino)-1H-pyrazole-4-carboxamide]
- Kd (RIP3): > 30 µM
- Kd (RIP1): > 30 µM
- IC50 (U937 cells): > 30 µM
- IC50 [1]: 0.01 to 1 µM

Structure (SMILES): CCS(=O)(=O)Nc1ccc(-c2n[nH]c(Nc3cnccn3)c2C(N)=O)cc1OC1(c2ccccc2)CC1 [Compound 152, 3-(4-(ethylsulfonamido)-3-(1-phenylcyclopropoxy)phenyl)-5-(pyrazin-2-ylamino)-1H-pyrazole-4-carboxamide]
- Kd (RIP3): > 30 µM
- Kd (RIP1): > 30 µM
- IC50 (U937 cells): > 30 µM
- IC50 [1]: 0.01 to 1 µM

Structure (SMILES): Cc1cnc(Nc2[nH]nc(-c3ccc(NS(=O)(=O)CC(F)(F)F)c(OCc4ccc(Cl)cc4)c3)c2C(N)=O)cn1 [Compound 162, 3-(3-((4-chlorobenzyl)oxy)-4-((2,2,2-trifluoroethyl)sulfonamido)phenyl)-5-((5-methylpyrazin-2-yl)amino)-1H-pyrazole-4-carboxamide]
- Kd (RIP3): > 30 µM
- Kd (RIP1): > 30 µM
- IC50 (U937 cells): > 30 µM
- IC50 [1]: 0.01 to 1 µM

Structure (SMILES): C[C@H](Oc1cc(-c2n[nH]c(Nc3cnccn3)c2C(N)=O)ccc1NS(=O)(=O)CC(F)(F)F)c1ccc(F)cc1 [Compound 164, (S)-3-(3-(1-(4-fluorophenyl)ethoxy)-4-((2,2,2-trifluoroethyl)sulfonamido)phenyl)-5-(pyrazin-2-ylamino)-1H-pyrazole-4-carboxamide]
- Kd (RIP3): > 30 µM
- Kd (RIP1): > 30 µM
- IC50 (U937 cells): > 30 µM
- IC50 [1]: < 0.01 µM

Structure (SMILES): NC(=O)c1c(-c2ccc(NS(=O)(=O)C3CC3)c(OCc3ccc(F)cc3)c2)n[nH]c1Nc1cnccn1 [Compound 169, 3-(4-(cyclopropanesulfonamido)-3-((4-fluorobenzyl)oxy)phenyl)-5-(pyrazin-2-ylamino)-1H-pyrazole-4-carboxamide]
- Kd (RIP3): > 30 µM
- Kd (RIP1): > 30 µM
- IC50 (U937 cells): > 30 µM
- IC50 [1]: 0.01 to 1 µM

Structure (SMILES): CCS(=O)(=O)Nc1ccc(-c2n[nH]c(Nc3cnccn3)c2C(N)=O)cc1OCc1ccc(F)cc1C [Compound 171, 3-(4-(ethylsulfonamido)-3-((4-fluoro-2-methylbenzyl)oxy)phenyl)-5-(pyrazin-2-ylamino)-1H-pyrazole-4-carboxamide]
- Kd (RIP3): > 30 µM
- Kd (RIP1): > 30 µM
- IC50 (U937 cells): > 30 µM
- IC50 [1]: 0.01 to 1 µM

Structure (SMILES): CCS(=O)(=O)Nc1ccc(-c2n[nH]c(Nc3cnccn3)c2C(N)=O)cc1O[C@@H](C)c1ccc(F)cc1 [Compound 199, (S)-3-(4-(ethylsulfonamido)-3-(1-(4-fluorophenyl)ethoxy)phenyl)-5-(pyrazin-2-ylamino)-1H-pyrazole-4-carboxamide]
- Kd (RIP3): > 30 µM
- Kd (RIP1): > 30 µM
- IC50 (U937 cells): > 30 µM
- IC50 [1]: 0.01 to 1 µM

Structure (SMILES): CCS(=O)(=O)Nc1ccc(-c2n[nH]c(Nc3cnccn3)c2C(N)=O)c(OCc2cccc(F)c2)c1 [Compound 208, 3-(4-(ethylsulfonamido)-2-((3-fluorobenzyl)oxy)phenyl)-5-(pyrazin-2-ylamino)-1H-pyrazole-4-carboxamide]
- Kd (RIP3): > 30 µM
- Kd (RIP1): > 30 µM
- IC50 (U937 cells): > 30 µM
- IC50 [1]: 1 to 30 µM

Structure (SMILES): C[C@H](Oc1cc(-c2n[nH]c(Nc3cccc(C(F)(F)F)n3)c2C(N)=O)ccc1NS(=O)(=O)C(F)F)c1ccc(F)cc1 [Compound 229, 3-[4-(difluoromethanesulfonamido)-3-[(1S)-1-(4-fluorophenyl)ethoxy]phenyl]-5-{[6-(trifluoromethyl)pyridin-2-yl]amino}-1H-pyrazole-4-carboxamide]
- Kd (RIP3): > 30 µM
- Kd (RIP1): > 30 µM
- IC50 (U937 cells): > 30 µM
- IC50 [1]: 0.01 to 1 µM

Structure (SMILES): NC(=O)c1c(-c2ccc(NS(=O)(=O)C(F)F)c(OCc3ccc(Cl)cc3)c2)n[nH]c1Nc1cnc(C(F)(F)F)cn1 [Compound 235, 3-(3-((4-chlorobenzyl)oxy)-4-((difluoromethyl)sulfonamido)phenyl)-5-((5-(trifluoromethyl)pyrazin-2-yl)amino)-1H-pyrazole-4-carboxamide]
- Kd (RIP3): > 30 µM
- Kd (RIP1): > 30 µM
- IC50 (U937 cells): > 30 µM
- IC50 [1]: 0.01 to 1 µM
